Results are given in words; binding and its absence hold for the method and conditions named. Some entries that bind do so weakly or less than the wild type.
T1: Psy3 (pGBD Psy3) (S. cerevisiae) (UniProt Q12318)
T1 sequence: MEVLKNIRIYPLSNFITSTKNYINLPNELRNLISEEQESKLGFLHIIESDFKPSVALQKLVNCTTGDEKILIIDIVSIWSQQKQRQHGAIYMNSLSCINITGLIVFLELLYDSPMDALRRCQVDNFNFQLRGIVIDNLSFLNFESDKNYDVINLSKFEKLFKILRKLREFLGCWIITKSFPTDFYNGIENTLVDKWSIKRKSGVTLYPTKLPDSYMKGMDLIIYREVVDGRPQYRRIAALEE

Sequences of proteins named here, by UniProt entry; tags and fusion partners are left off.
UniProt P25454: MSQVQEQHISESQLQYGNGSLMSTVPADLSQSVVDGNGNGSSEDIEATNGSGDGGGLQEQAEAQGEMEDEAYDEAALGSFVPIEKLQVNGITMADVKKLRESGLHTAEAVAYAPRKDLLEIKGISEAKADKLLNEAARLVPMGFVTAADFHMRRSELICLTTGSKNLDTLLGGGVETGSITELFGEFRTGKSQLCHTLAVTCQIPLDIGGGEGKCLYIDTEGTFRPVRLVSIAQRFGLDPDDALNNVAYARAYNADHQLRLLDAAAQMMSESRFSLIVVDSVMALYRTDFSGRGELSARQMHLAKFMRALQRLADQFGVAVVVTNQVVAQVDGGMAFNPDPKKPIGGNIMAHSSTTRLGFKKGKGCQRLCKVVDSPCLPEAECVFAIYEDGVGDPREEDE

T2: Rad57 (pGBD Rad57) (S. cerevisiae) (UniProt P25301)
T2 sequence: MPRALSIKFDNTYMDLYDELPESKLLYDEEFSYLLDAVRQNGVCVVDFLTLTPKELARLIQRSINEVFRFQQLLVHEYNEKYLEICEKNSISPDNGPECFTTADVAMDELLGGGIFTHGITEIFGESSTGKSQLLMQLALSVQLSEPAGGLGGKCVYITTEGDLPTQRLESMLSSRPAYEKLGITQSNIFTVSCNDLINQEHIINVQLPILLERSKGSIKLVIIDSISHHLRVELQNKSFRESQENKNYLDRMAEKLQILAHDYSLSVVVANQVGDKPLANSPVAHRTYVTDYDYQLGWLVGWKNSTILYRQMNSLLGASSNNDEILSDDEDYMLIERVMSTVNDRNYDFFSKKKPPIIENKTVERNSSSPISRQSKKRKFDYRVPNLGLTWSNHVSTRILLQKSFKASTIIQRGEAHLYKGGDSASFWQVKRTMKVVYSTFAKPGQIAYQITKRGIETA

T3: Rad55 (pGBD Rad55) (S. cerevisiae) (UniProt P38953)
T3 sequence: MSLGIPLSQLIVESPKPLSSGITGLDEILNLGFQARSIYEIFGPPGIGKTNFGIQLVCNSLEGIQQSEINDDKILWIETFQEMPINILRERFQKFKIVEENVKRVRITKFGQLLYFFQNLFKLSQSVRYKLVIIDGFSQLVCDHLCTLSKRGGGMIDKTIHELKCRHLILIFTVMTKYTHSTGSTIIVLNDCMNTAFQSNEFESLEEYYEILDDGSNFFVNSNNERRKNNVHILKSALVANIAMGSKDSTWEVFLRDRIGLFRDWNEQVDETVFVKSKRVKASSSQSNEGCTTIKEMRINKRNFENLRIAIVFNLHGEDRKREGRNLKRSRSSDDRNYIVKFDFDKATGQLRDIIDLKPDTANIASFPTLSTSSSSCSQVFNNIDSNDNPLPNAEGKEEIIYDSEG


Experiments:
Test in all cases: two-hybrid; GAL4 DNA-binding domain (pGBD) and GAL4 activation domain (pGAD) fusions co-transformed into PJ69-4α (also its rad51∆, rad55∆, csm2∆, shu1∆ and shu2∆ derivatives); growth on SC-L-W-H, 2-3 days, 30 °C
[1] = target: T1, Psy3 (pGBD Psy3) (S. cerevisiae)
[2] = target: T2, Rad57 (pGBD Rad57) (S. cerevisiae)
[3] = target: Rad51 (two-hybrid fusion) (S. cerevisiae) (UniProt P25454)
[4] = target: T3, Rad55 (pGBD Rad55) (S. cerevisiae)

| Binder | binding [1] | binding [2] | binding [3] | binding [4] |
| --- | --- | --- | --- | --- |
| Orc2 (pGAD ORC2) (protein, UniProt P32833 1-620) MLNGEDFVEHNDILSSPAKSRNVTPKRVDPHGERQLRRIHSSKKNLLERISLVGNERKNTSPDPALKPKTPSKAPRKRGRPRKIQEELTDRIKKDEKDTISSKKKRKLDKDTSGNVNEESKTSNNKQVMEKTGIKEKREREKIQVATTTYEDNVTPQTDDNFVSNSPEPPEPATPSKKSLTTNHDFTSPLKQIIMNNLKEYKDSTSPGKLTLSRNFTPTPVPKNKKLYQTSETKSASSFLDTFEGYFDQRKIVRTNAKSRHTMSMAPDVTREEFSLVSNFFNENFQKRPRQKLFEIQKKMFPQYWFELTQGFSLLFYGVGSKRNFLEEFAIDYLSPKIAYSQLAYENELQQNKPVNSIPCLILNGYNPSCNYRDVFKEITDLLVPAELTRSETKYWGNHVILQIQKMIDFYKNQPLDIKLILVVHNLDGPSIRKNTFQTMLSFLSVIRQIAIVASTDHIYAPLLWDNMKAQNYNFVFHDISNFEPSTVESTFQDVMKMGKSDTSSGAEGAKYVLQSLTVNSKKMYKLLIETQMQNMGNLSANTGPKRGTQRTGVELKLFNHLCAADFIASNEIALRSMLREFIEHKMANITKNNSGMEIIWVPYTYAELEKLLKTVLNTL | binds | no binding | no binding | no binding |
| Orc3 (pGAD ORC3) (protein, UniProt P54790 1-616) MSDLNQSKKMNVSEFADAQRSHYTVYPSLPQSNKNDKHIPFVKLLSGKESEVNVEKRWELYHQLHSHFHDQVDHIIDNIEADLKAEISDLLYSETTQKRRCFNTIFLLGSDSTTKIELKDESSRYNVLIELTPKESPNVRMMLRRSMYKLYSAADAEEHPTIKYEDINDEDGDFTEQNNDVSYDLSLVENFKRLFGKDLAMVFNFKDVDSINFNTLDNFIILLKSAFKYDHVKISLIFNINTNLSNIEKNLRQSTIRLLKRNYHKLDVSSNKGFKYGNQIFQSFLDTVDGKLNLSDRFVEFILSKMANNTNHNLQLLTKMLDYSLMSYFFQNAFSVFIDPVNVDFLNDDYLKILSRCPTFMFFVEGLIKQHAPADEILSLLTNKNRGLEEFFVEFLVRENPINGHAKFVARFLEEELNITNFNLIELYHNLLIGKLDSYLDRWSACKEYKDRLHFEPIDTIFQELFTLDNRSGLLTQSIFPSYKSNIEDNLLSWEQVLPSLDKENYDTLSGDLDKIMAPVLGQLFKLYREANMTINIYDFYIAFRETLPKEEILNFIRKDPSNTKLLELAETPDAFDKVALILFMQAIFAFENMGLIKFQSTKSYDLVEKCVWRGI | binds | no binding | no binding | no binding |
| Orc4 (pGAD ORC4) (protein, UniProt P54791 1-529) MTISEARLSPQVNLLPIKRHSNEEVEETAAILKKRTIDNEKCKDSDPGFGSLQRRLLQQLYGTLPTDEKIIFTYLQDCQQEIDRIIKQSIIQKESHSVILVGPRQSYKTYLLDYELSLLQQSYKEQFITIRLNGFIHSEQTAINGIATQLEQQLQKIHGSEEKIDDTSLETISSGSLTEVFEKILLLLDSTTKTRNEDSGEVDRESITKITVVFIFDEIDTFAGPVRQTLLYNLFDMVEHSRVPVCIFGCTTKLNILEYLEKRVKSRFSQRVIYMPQIQNLDDMVDAVRNLLTVRSEISPWVSQWNETLEKELSDPRSNLNRHIRMNFETFRSLPTLKNSIIPLVATSKNFGSLCTAIKSCSFLDIYNKNQLSNNLTGRLQSLSDLELAILISAARVALRAKDGSFNFNLAYAEYEKMIKAINSRIPTVAPTTNVGTGQSTFSIDNTIKLWLKKDVKNVWENLVQLDFFTEKSAVGLRDNATAAFYASNYQFQGTMIPFDLRSYQMQIILQELRRIIPKSNMYYSWTQL | binds | no binding | no binding | no binding |
| Orc5 (pGAD ORC5) (protein, UniProt P50874 1-479) MNVTTPEVAFREYQTNCLASYISADPDITPSNLILQGYSGTGKTYTLKKYFNANPNLHAVWLEPVELVSWKPLLQAIARTVQYKLKTLYPNIPTTDYDPLQVEEPFLLVKTLHNIFVQYESLQEKTCLFLILDGFDSLQDLDAALFNKYIKLNELLPKDSKINIKFIYTMLETSFLQRYSTHCIPTVMFPRYNVDEVSTILVMSRCGELMEDSCLRKRIIEEQITDCTDDQFQNVAANFIHLIVQAFHSYTGNDIFALNDLIDFKWPKYVSRITKENIFEPLALYKSAIKLFLSTDDNLSENGQGESAITTNRDDLENSQTYDLSIISKYLLIASYICSYLEPRYDASIFSRKTRIIQGRAAYGRRKKKEVNPRYLQPSLFAIERLLAIFQAIFPIQGKAESGSLSALREESLMKANIEVFQNLSELHTLKLIATTMNKNIDYLSPKVRWKVNVPWEIIKEISESVHFNISDYFSDIHE | binds | no binding | – | no binding |
| Mcm5 (pGAD Mcm5) (protein, UniProt P29496 1-775) MSFDRPEIYSAPVLQGESPNDDDNTEIIKSFKNFILEFRLDSQFIYRDQLRNNILVKNYSLTVNMEHLIGYNEDIYKKLSDEPSDIIPLFETAITQVAKRISILSRAQSANNNDKDPENTSMDTDSLLLNSLPTFQLILNSNANQIPLRDLDSEHVSKIVRLSGIIISTSVLSSRATYLSIMCRNCRHTTSITINNFNSITGNTVSLPRSCLSTIESESSMANESNIGDESTKKNCGPDPYIIIHESSKFIDQQFLKLQEIPELVPVGEMPRNLTMTCDRYLTNKVIPGTRVTIVGIYSIYNSKNGAGSGRSGGGNGGSGVAIRTPYIKILGIQSDVETSSIWNSVTMFTEEEEEEFLQLSRNPKLYEILTNSIAPSIFGNEDIKKAIVCLLMGGSKKILPDGMRLRGDINVLLLGDPGTAKSQLLKFVEKVSPIAVYTSGKGSSAAGLTASVQRDPMTREFYLEGGAMVLADGGVVCIDEFDKMRDEDRVAIHEAMEQQTISIAKAGITTVLNSRTSVLAAANPIYGRYDDLKSPGDNIDFQTTILSRFDMIFIVKDDHNEERDISIANHVINIHTGNANAMQNQQEENGSEISIEKMKRYITYCRLKCAPRLSPQAAEKLSSNFVTIRKQLLINELESTERSSIPITIRQLEAIIRITESLAKLELSPIAQERHVDEAIRLFQASTMDAASQDPIGGLNQASGTSLSEIRRFEQELKRRLPIGWSTSYQTLRREFVDTHRFSQLALDKALYALEKHETIQLRHQGQNIYRSGV | binds | no binding | binds weakly | no binding |
| Orc1 (pGAD ORC1) (protein, UniProt P54784 1-914) MAKTLKDLQGWEIITTDEQGNIIDGGQKRLRRRGAKTEHYLKRSSDGIKLGRGDSVVMHNEAAGTYSVYMIQELRLNTLNNVVELWALTYLRWFEVNPLAHYRQFNPDANILNRPLNYYNKLFSETANKNELYLTAELAELQLFNFIRVANVMDGSKWEVLKGNVDPERDFTVRYICEPTGEKFVDINIEDVKAYIKKVEPREAQEYLKDLTLPSKKKEIKRGPQKKDKATQTAQISDAETRATDITDNEDGNEDESSDYESPSDIDVSEDMDSGEISADELEEEEDEEEDEDEEEKEARHTNSPRKRGRKIKLGKDDIDASVQPPPKKRGRKPKDPSKPRQMLLISSCRANNTPVIRKFTKKNVARAKKKYTPFSKRFKSIAAIPDLTSLPEFYGNSSELMASRFENKLKTTQKHQIVETIFSKVKKQLNSSYVKEEILKSANFQDYLPARENEFASIYLSAYSAIESDSATTIYVAGTPGVGKTLTVREVVKELLSSSAQREIPDFLYVEINGLKMVKPTDCYETLWNKVSGERLTWAASMESLEFYFKRVPKNKKKTIVVLLDELDAMVTKSQDIMYNFFNWTTYENAKLIVIAVANTMDLPERQLGNKITSRIGFTRIMFTGYTHEELKNIIDLRLKGLNDSFFYVDTKTGNAILIDAAGNDTTVKQTLPEDVRKVRLRMSADAIEIASRKVASVSGDARRALKVCKRAAEIAEKHYMAKHGYGYDGKTVIEDENEEQIYDDEDKDLIESNKAKDDNDDDDDNDGVQTVHITHVMKALNETLNSHVITFMTRLSFTAKLFIYALLNLMKKNGSQEQELGDIVDEIKLLIEVNGSNKFVMEIAKTLFQQGSDNISEQLRIISWDFVLNQLLDAGILFKQTMKNDRICCVKLNISVEEAKRAMNEDETLRNL | binds | no binding | – | no binding |

Reference: paper PMC11876325
